Data taken from PubChem BioAssay AID2675 (National Center for Advancing Translational Sciences (NCATS), 2010).
Values joined by “and” are separate entries in the source; they are usually repeats but may differ in a detail not shown here. Equal entries are not always repeated. About 100 (0.036%) of roughly 280,000 compounds were called active. This list was built around the results that the source calls inconclusive (neither active nor inactive); the mix of calls is not that of the screen. Calls come from the whole dose curve; as a rule, active = well fitted inhibition curve with a large enough effect in the signal ratio, with a control signal flat (not every such curve was filed as active); inconclusive = small, poorly fitted or top-dose-only effect, or effect the other way, or a change in a side signal; inactive = no such curve, though single readings can be large or run the other way; the % refers to the signal ratio. Potencies of inconclusive entries are doubtful fits and often do not repeat. “Side channel” marks fits to a control or component signal instead of the main read-out.

Molecular target: Muscleblind-like protein 1 (Homo sapiens) (UniProt Q9NR56)
Assay: qHTS Assay for Inhibitors of MBNL1-poly(CUG) RNA binding
Settings: TR-FRET MBNL1-His/biotin-(CUG)12 binding, 665/545 ratio; activity change, negative = inhibition: at 57.5 µM (top of the series)
Method in brief: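 Ratiometric TR-FRET (665 over 545 nm, excitation 340 nm) tracks disruption of MBNL1-His/biotin-(CUG)12 complex after 60 min at room temperature, with compounds at 92 nM to 58 uM final.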
% is set by controls: 0 for no effect and ±100 for the full control effect; potency is the fitted concentration of half-maximal effect; tags give direction and shape of the fitted curve or compound fluorescence and quenching.

Chain of UniProt Q9NR56 (Q9NR56 whole entry, looked up): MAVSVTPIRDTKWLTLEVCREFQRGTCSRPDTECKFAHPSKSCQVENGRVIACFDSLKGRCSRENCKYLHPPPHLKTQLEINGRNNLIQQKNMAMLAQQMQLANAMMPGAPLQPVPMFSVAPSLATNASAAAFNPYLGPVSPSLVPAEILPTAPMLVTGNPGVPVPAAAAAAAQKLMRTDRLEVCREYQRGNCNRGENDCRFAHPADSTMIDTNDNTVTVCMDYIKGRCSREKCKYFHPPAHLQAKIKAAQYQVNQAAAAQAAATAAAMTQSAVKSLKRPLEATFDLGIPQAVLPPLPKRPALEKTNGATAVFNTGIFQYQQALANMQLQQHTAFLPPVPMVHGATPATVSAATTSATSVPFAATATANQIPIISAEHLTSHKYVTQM

| SMILES | Potency | activity change, negative = inhibition |
| --- | --- | --- |
| CN(C)c1ccc(/C=N/N2C(=O)c3ccccc3C2=O)cc1 | inconclusive: 31.6 µM [quencher, side channel, partial curve] |  |
| N#CCOC(=O)/C=C/c1ccc2c(c1)OCO2 | inconclusive: 31.6 µM [quencher, side channel, single point] |  |
| Cc1ccc2nc3c(cc(C(=O)NCC4CCCO4)c(=N)n3CCCOC(C)C)c(=O)n2c1 (centres undefined) | inconclusive: 7.08 µM [quencher, side channel, partial curve] |  |
| COCCCNC(=S)N1CCCN(c2nc3cc(C)ccc3cc2C#N)CC1 | inconclusive: 28.2 µM [quencher, side channel, single point] |  |
| O=C(CSc1ccc(C(F)(F)F)cc1[N+](=O)[O-])Nc1ccc2ccccc2c1 | inactive |  |
| Cc1cc(-c2ccccc2)c2nncn2n1 | inconclusive: 7.94 µM [quencher, side channel, partial curve, poor fit] |  |
| Cc1ccc(-n2cc(-c3ccc([N+](=O)[O-])cc3)[nH]c2=S)c(C)c1 | inconclusive: 15.8 µM [quencher, side channel, partial curve] |  |
| CN1\C(=C/C=C/C=C/C=[N+](C)C)C(C)(C)c2ccccc21 | inconclusive: 11.2 µM [quencher, side channel, partial curve] |  |
| Cc1cc(C)cc(C(=O)Nc2nc3ccccc3[nH]2)c1 | inactive |  |
| C=CCn1c(SCC(=O)NC2CCCC2)nnc1-c1ccccn1 | inactive |  |
| CN1C(=O)/C(=C/c2ccc3c(c2)OCO3)N=C1c1ccccc1 | inconclusive: 39.8 µM [quencher, side channel, partial curve, poor fit] |  |
| Cn1nccc1NC(=O)Nc1cccc(Br)c1 | active: 10 µM |  |
| Cc1cc(=O)[nH]c2c(N=Nc3ccc(O)cc3)c(N)nn12 | inconclusive: 17.8 µM [quencher, side channel, partial curve] |  |
| CCOC(=O)c1ccccc1N=N/C(C(C)=O)=C(/C)O | inactive |  |
| Cc1nc2oc3ccc(Cl)cc3c(=O)c2cc1C(=O)O | inconclusive: 22.4 µM [quencher, partial curve] |  |
| COc1ccc(C(CNC(=O)C(Cc2ccccc2)NC(N)=O)N(C)C)cc1 (centres undefined) | inactive |  |
| Nc1nc(SCc2ccc([N+](=O)[O-])cc2)c2ncn([C@@H]3O[C@H](CO)[C@H](O)[C@H]3O)c2n1 | inconclusive: 8.91 µM [quencher, side channel, partial curve] |  |
| CC(C)C(c1nnnn1C1CCCC1)N1CCCc2ccccc21 (centres undefined) | inactive |  |
| O=C(COC(=O)c1cc[n+]([O-])cc1)Nc1ccc(F)c([N+](=O)[O-])c1 | inconclusive: 8.91 µM [quencher, side channel, partial curve] |  |
| CC(=O)NN1C(=O)/C(=C\c2ccc(O)cc2)SC1=S | inconclusive: 3.98 µM [quencher, side channel, full curve] |  |
| CC1=NN(c2ccc(C(F)(F)F)cn2)C(=O)C1 | inactive |  |
| COc1cccc(-c2nnn(CCc3nn[nH]n3)n2)c1 | inconclusive: 63.1 µM [inhibitor, partial curve] |  |

| SMILES | Potency | activity change, negative = inhibition |
| --- | --- | --- |
| CN1C(=O)c2ccc(NC(=O)c3cccc(N4C(=O)CCC4=O)c3)cc2C1=O | inconclusive: 15.8 µM [quencher, side channel, partial curve] |  |
| O=C(CCc1c[nH]c2ccccc12)OCc1cccc([N+](=O)[O-])c1 | inconclusive: 31.6 µM [quencher, side channel, single point] |  |
| CC1CCCCN1CCNC(=O)C1CCCN(S(=O)(=O)c2cccc3nsnc23)C1 (centres undefined) | inconclusive: 11.2 µM [quencher, side channel, partial curve] |  |
| O=C(CSc1nc2nc3c(cc2c(=O)n1-c1ccccc1)CCCC3)Nc1cccc2ccccc12 | inconclusive: 0.0891 µM [fluorescent, side channel, full curve] |  |
| Cc1nc2cc(NC(=O)c3ccc(S(=O)(=O)N(C)c4ccccc4)cc3)ccc2o1 | inactive |  |
| O=C(Nc1ccc([N+](=O)[O-])cc1)c1cncc(Br)c1 | inconclusive: 7.08 µM [quencher, side channel, partial curve] |  |
| CCN(C(=O)CN1C(=O)COc2ccc(S(=O)(=O)N3CCOCC3)cc21)c1ccc(OC)cc1 | inconclusive: 79.4 µM [inhibitor, single point] |  |
| O=C1OC(c2ccccc2)=C/C1=C/N1CCOCC1 | inactive |  |
| COc1ccc(NC(=O)c2ccc([N+](=O)[O-])o2)cc1 | inconclusive: 10 µM [quencher, side channel, partial curve] |  |
| COCCNC(=O)/C(C#N)=C/C=C/c1ccccc1[N+](=O)[O-] | inconclusive: 15.8 µM [quencher, side channel, partial curve] |  |
| O=C(OCCN1CCCCC1)c1ccccc1Br | inconclusive: 20 µM [inhibitor, single point] |  |
| C/C(=N\NC(=O)c1ccc([N+](=O)[O-])cc1Cl)c1ccccc1 | inconclusive: 15.8 µM [quencher, side channel, partial curve] |  |
| O=C(Nc1cccc(-c2cccc(Cl)c2)c1)C1CCN(CC2CCOC2)CC1 (centres undefined) | inactive |  |
| CN(C)S(=O)(=O)c1cc(NC(=O)CSc2ncc(C(F)(F)F)cc2Cl)ccc1Cl | inconclusive: 0.562 µM [fluorescent, side channel, full curve, poor fit] |  |
| O=C(CSc1nc2ccccc2n1Cc1ccccc1)N/N=C/c1ccco1 | inconclusive: 39.8 µM [quencher, side channel, single point] |  |
| O=c1nc2c(O)cccn2c2c1c(=O)[nH]c1ccccc12 | inconclusive: 14.1 µM [quencher, side channel, partial curve] |  |
| CCN(CC(=O)NC(C)(C)C)C(=O)CCl | inconclusive: 6.31 µM [fluorescent, side channel, partial curve] |  |
| Cc1ccc(C(=O)N/C(=C/c2ccco2)C(=O)Nc2cccc(C(=O)O)c2)cc1 | inconclusive: 14.1 µM [quencher, side channel, partial curve] |  |
| O=C1CCC(C(=O)N2CCCC(C(=O)c3ccc4ccccc4c3)C2)=NN1 (centres undefined) | inconclusive: 22.4 µM [quencher, side channel, partial curve] |  |
| O=C(Nc1ccc(Br)cn1)c1ccc([N+](=O)[O-])cc1Cl | inconclusive: 10 µM [quencher, side channel, partial curve] |  |
| O=C(CCCc1nc(-c2ccc(Cl)cc2)no1)Nc1cccnc1 | inactive |  |
| Cc1ccc2oc3c(c(=O)c2c1)C(c1cccc(Br)c1)N(Cc1ccco1)C3=O (centres undefined) | inactive |  |

| SMILES | Potency | activity change, negative = inhibition |
| --- | --- | --- |
| CN(C)CC(=O)Nc1nc(-c2ccccc2)cs1 | inactive |  |
| COc1ccc(C(=O)Nc2cc(C(=O)c3ccccc3)c(C)oc2=O)cc1 | inactive |  |
| COc1ccc(NC(=O)CC2SC(N)=NC2=O)c([N+](=O)[O-])c1 (centres undefined) | inconclusive: 14.1 µM [quencher, side channel, partial curve] |  |
| CC(C)CN(CC(C)C)c1ccc(/C=N/n2cnnc2)cc1[N+](=O)[O-] | inconclusive: 28.2 µM [quencher, side channel, single point] |  |
| S=C(Nc1ccccc1Cl)N1CCN(Cc2ccccc2)CC1 |  | inactive: 15.1% [at 11.5 µM] |
| CS(=O)(=O)N1CCCC(C(=O)Nc2ccc(Br)cc2F)C1 (centres undefined) | inactive |  |
| O=C(Nc1ncc([N+](=O)[O-])s1)c1cccs1 | inconclusive: 12.6 µM [quencher, side channel, partial curve] and inconclusive: 25.1 µM [quencher, partial curve, poor fit] |  |
| Cc1ccc(OCC(=O)N/N=C/c2cn(C)c3ccccc23)cc1 | inactive |  |
| COc1ccc(NC(=O)c2sc3cc(C(F)(F)F)cnc3c2-c2cccs2)cc1 | inconclusive: 25.1 µM [fluorescent, side channel, partial curve] |  |
| CNC(=O)/C(C#N)=C\c1ccc(CNS(=O)(=O)c2ccc(Cl)cc2)o1 | inconclusive: 25.1 µM [quencher, side channel, partial curve] |  |
| COc1cc(C(=O)Nc2ccc3c(c2)C(=O)N(CCC(=O)O)C3=O)cc(OC)c1OC | inconclusive: 39.8 µM [quencher, single point] |  |
| C[C@@H](C(=O)Nc1ccc2ccccc2c1)[C@@H]1C[C@@]1(C)[C@@H](NC(=O)c1cnccn1)c1ccccc1 | inactive |  |
| CCOC(=O)N1CCc2c(sc(NC(=O)CN3CCN(C)CC3)c2C(=O)Nc2ccccc2)C1 | inactive |  |
| COc1ccc(N2C(=O)N3[C@H](c4ccc(Br)cc4)[C@@H]4C(=O)N(C(C)(C)C)C(=O)[C@@H]4[C@]3(Cc3ccccc3)C2=O)cc1 | inactive |  |
| O=S(=O)(c1ccc2ccccc2c1)N1CCN(C(=S)Nc2ccc(F)cc2)CC1 | inconclusive: 6.31 µM [quencher, side channel, single point] |  |
| COc1cc(CC(=O)OCC(=O)Nc2cccc([N+](=O)[O-])c2)cc(OC)c1OC | inconclusive: 3.16 µM [quencher, side channel, single point] |  |
| CCc1ccc(/C=N/NC(=O)c2cc(-c3ccccc3OC)nc3ccccc23)s1 | inactive |  |
| C=CCn1cccc(C(=O)Nc2ccc(Cl)cc2)c1=O | inactive |  |
| Nc1c(N2CCOCC2)cc(Cl)c2nonc12 | inconclusive: 11.2 µM [quencher, partial curve] |  |
| COc1ccc(/C=C2\SC(=S)N(CCC(=O)Nc3cccc(C(=O)O)c3)C2=O)cc1OC | inconclusive: 4.47 µM [quencher, side channel, full curve] |  |
